This is one part of the list.
tested on: T1, C. trachomatis L2/434/Bu expressing GFP (CTL2-GFP); design: species or system HeLa; C. trachomatis total inclusion area by high-content imaging, normalised to DMSO; conditions: total inclusion area; 28.5 h, 10 µM; inhibitor
T1 construct: L2/434/Bu GFP intracellular growth in HeLa cells
Outline: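 High-content images of fixed, Hoechst-stained infected cultures supply inclusion area and count (growth) plus nuclei number (viability), complementing bulk GFP/resorufin fluorescence. MIC determination is unchanged from the primary assay.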

`COc1cc(C2C(C#N)=C(N)OC3=C2C(=O)CC(c2ccccc2)C3)cc(Br)c1O` (centres unmarked) [CBK261587] was tested. Which “% of control remaining” value did it give?
Its value is 111.016.

How did the “% of control remaining” value turn out when `COc1ccc(Cl)cc1NC(=O)Nc1ccc(C(=O)N2CCOCC2)cc1` [CBK266958] was run?
The value was 107.237.

How did the “% of control remaining” value turn out when `CCN(CC)C(=O)c1sccc1NS(=O)(=O)Cc1ccccc1` [CBK050393] was run?
The value was 91.5888.

How did the “% of control remaining” value turn out when `CCOC(=O)c1ccccc1NS(=O)(=O)c1ccc(C(F)(F)F)cc1[N+](=O)[O-]` [CBK050584] was run?
The value was 68.1562.

Which “% of control remaining” value does the source give for `NS(=O)(=O)c1ccc(/N=C/c2cccc(O)c2O)cc1` [CBK261533] here?
Its value is 98.6728.

How did the “% of control remaining” value turn out when `CN(C)c1ccccc1-c1cc(Nc2ccc3cn[nH]c3c2)ncn1` [CBK090850] was run?
The value was 34.797.

For `CCCN1CCN(c2ncc(CNS(=O)(=O)c3ccc(Cl)cc3)cn2)CC1` [CBK010261], which “% of control remaining” value is on record?
The value was 83.0212.

For `O=C(CCn1c(C(F)(F)F)cc2cccnc21)N1CCC(O)CC1` [CBK284887], which “% of control remaining” value is on record?
Its value is 128.756.

`O=C(c1cccc(F)c1)N1CCCC1c1cc2cccnc2[nH]1` (centres unmarked) [CBK285081] was tested. Which “% of control remaining” value did it give?
The value was 107.795.

For `CCc1cc(Br)ccc1S(=O)(=O)Nc1ccnn1CC` [CBK044900], which “% of control remaining” value is on record?
Its value is 90.0468.

With `CCSc1nnc(-c2cccc(C)c2)n1CC1CCCCC1` [CBK085419] as the compound, how does the “% of control remaining” value read?
The value was 104.081.

Which “% of control remaining” value does the source give for `CCOc1ccc(Cl)cc1CCNC(=O)NC(C)c1nnnn1C` (centres unmarked) [CBK305923] here?
The value was 94.2712.

For `O=C(COc1ccc(S(=O)(=O)N2CCCCC2)cc1Cl)N1CCc2ccccc2C1` [CBK269510], which “% of control remaining” value is on record?
The value was 102.968.

`O=C(NCc1ccc(F)cc1)Nc1ccccc1F` [CBK115584] was tested. Which “% of control remaining” value did it give?
Its value is 90.6082.

`CCc1cccc2c(CN3CCc4nc(C)[nH]c(=O)c4C3)c[nH]c12` [CBK283931] was tested. Which “% of control remaining” value did it give?
Its value is 81.451.

For `Cc1ccc(NC(=O)C2CC(=O)Nc3nc(SCc4ccccc4C)[nH]c(=O)c32)c(C)c1` (centres unmarked) [CBK294438], which “% of control remaining” value is on record?
Its value is 113.316.

How did the “% of control remaining” value turn out when `O=C(Nc1cccc(-c2cccc(F)c2)c1)c1ccccc1Cn1cncn1` [CBK285735] was run?
The value was 101.921.

Which “% of control remaining” value does the source give for `CNC(=O)c1sc2ccccc2c1C1CN(Cc2cn(C)c3cc(OC)ccc23)CCO1` (centres unmarked) [CBK286087] here?
The value was 123.077.

For `COC(=O)COc1ccc(S(=O)(=O)NCc2ccc3c(c2)OCO3)cc1C` [CBK267172], which “% of control remaining” value is on record?
Its value is 114.515.

`COc1ccnc(N2CCN(C(=O)c3cnn(C)c3C3CC3)CC2)n1` [CBK304900] was tested. Which “% of control remaining” value did it give?
Its value is 25.5019.

For `O=C1/C(=C/c2ccc(OCc3ccccc3Cl)c(Cl)c2)SC(=S)N1Cc1cccnc1` [CBK264702], which “% of control remaining” value is on record?
Its value is 113.036.

With `COC(=O)[C@@H](NC(=O)C1CCN(C(=O)OCc2ccccc2)CC1)c1ccccc1` [CBK081468] as the compound, how does the “% of control remaining” value read?
Its value is 85.6406.

How did the “% of control remaining” value turn out when `CCOC(=O)CNS(=O)(=O)c1ccc(C(F)(F)F)cc1[N+](=O)[O-]` [CBK034446] was run?
Its value is 72.1487.

With `C=CCn1c2cc(C)sc2c2cnn(CC(=O)N(C)C)c(=O)c21` [CBK284164] as the compound, how does the “% of control remaining” value read?
Its value is 71.4686.

Which “% of control remaining” value does the source give for `O=C(COc1ccc(Cl)cc1Br)NNC(=O)c1ccc(O)cc1` [CBK262950] here?
Its value is 104.717.

How did the “% of control remaining” value turn out when `CN1CCCC1CCOc1ncccc1OCCO` (centres unmarked) [CBK039176] was run?
The value was 119.027.

Which “% of control remaining” value does the source give for `O=C(NCN1CCN(c2ccc([N+](=O)[O-])cc2)CC1)c1cccnc1` [CBK264909] here?
Its value is 84.5323.

`c1ccc(C(NCc2nnc(-c3ccco3)o2)C2CCC2)cc1` (centres unmarked) [CBK305818] was tested. Which “% of control remaining” value did it give?
The value was 59.9816.

How did the “% of control remaining” value turn out when `Cc1c(C)n(Cc2ccco2)c2ncnc(NCCC(=O)O)c12` [CBK307564] was run?
Its value is 13.732.

Which “% of control remaining” value does the source give for `O=C1Nc2ccc(-c3cccc(C(F)(F)F)c3)cc2C(=O)N2CCN(C(=O)C3CC3)C[C@H]12` [CBK289585] here?
Its value is 95.1123.

How did the “% of control remaining” value turn out when `CN(C)C(=O)c1ccc(-c2ccc(OC3CCN(C(=O)CCc4cccnc4)CC3)nc2)cc1` [CBK155049] was run?
The value was 74.0588.

How did the “% of control remaining” value turn out when `Cc1nc2cc(/N=C/c3c[nH]c4ccccc34)ccc2n1C` [CBK262085] was run?
Its value is 112.364.

For `Cn1ccnc1CN(CCCn1ccnc1)Cc1ccccc1F` [CBK283022], which “% of control remaining” value is on record?
The value was 74.2051.

`O=C(Cn1c(-c2cccs2)cc2cccnc21)NC1CC1` [CBK282552] was tested. Which “% of control remaining” value did it give?
Its value is 110.306.

With `CCC(NC(=O)c1cc(CC(C)C)nn1CC)c1cn2cccnc2n1` (centres unmarked) [CBK307505] as the compound, how does the “% of control remaining” value read?
Its value is 105.887.

Which “% of control remaining” value does the source give for `O=C(Cc1c(F)cccc1F)Nc1ccc2[nH]ccc2c1` [CBK144712] here?
The value was 116.423.

`O=C(CCc1nc2ccccc2s1)Nc1nc2ccccc2[nH]1` [CBK287988] was tested. Which “% of control remaining” value did it give?
Its value is 93.3949.

`COc1ccc(C(=O)N2CCC3(CCCN(C(=O)CN4C(=O)CSC4=O)C3)C2)cc1OC` (centres unmarked) [CBK137088] was tested. Which “% of control remaining” value did it give?
The value was 100.055.

For `COCc1nc(NCCCn2c(C)cccc2=O)cc(C2CCOC2)n1` (centres unmarked) [CBK306845], which “% of control remaining” value is on record?
Its value is 70.1008.

Which “% of control remaining” value does the source give for `Cc1ccc(Cn2cnc3c(cnn3-c3ccc(C)c(C)c3)c2=O)cc1` [CBK287540] here?
The value was 110.934.

Which “% of control remaining” value does the source give for `O=C1NC(=S)S/C1=C\c1cn(-c2ccccc2)nc1-c1ccc(OCc2ccccc2)cc1` [CBK265496] here?
Its value is 106.024.

How did the “% of control remaining” value turn out when `CSc1ncc(Cl)c(C(=O)Nc2sc3c(c2C(=O)NCc2cccnc2)CCC3)n1` [CBK268710] was run?
The value was 81.8419.

With `CCc1nc2ccc(C(=O)N(C)Cc3ccccc3)cn2c1N(C=O)CC` [CBK145936] as the compound, how does the “% of control remaining” value read?
Its value is 93.7313.

Which “% of control remaining” value does the source give for `COc1ccc2c(c1)CC1(CCC(NCCCC(=O)c3ccc(F)cc3)CC1)C2` (centres unmarked) [CBK016054C] here?
Its value is 26.8747.

How did the “% of control remaining” value turn out when `CC(=O)Nc1cc(I)cc(C(=O)O)c1` [CBK026452G] was run?
The value was 90.4006.

Which “% of control remaining” value does the source give for `CCCC/C=C/c1cncc(N2CCN(Cc3ccccn3)CC2)n1` [CBK066096] here?
Its value is 102.856.

`CCOC(=O)C1(C2CCCCC2)CCN(C(=O)c2cc(C)[nH]n2)CC1` [CBK137100] was tested. Which “% of control remaining” value did it give?
The value was 104.195.

For `CCCCNC(=O)c1ccc2nc(CC)c(N(C)C(=O)C3CCCCC3)n2c1` [CBK145791], which “% of control remaining” value is on record?
Its value is 112.073.

With `Cc1ccc(C(NC(=O)C2CCN(Cc3ccc(Cl)cc3)CC2)c2ccccn2)cc1` (centres unmarked) [CBK148007] as the compound, how does the “% of control remaining” value read?
Its value is 87.4286.

`CN1CCC2(CC1)CC(=O)c1cc(-c3ccc(C(=O)N(C)CCC#N)cc3)ccc1O2` [CBK156518] was tested. Which “% of control remaining” value did it give?
The value was 86.0409.

Source: publication PMC12040169 (PLOS Biology, 2025)
